In publication PMC5566547, “Nei-like 1 (NEIL1) excises 5-carboxylcytosine directly and stimulates TDG-mediated 5-formyl and 5-carboxylcytosine excision” (Scientific Reports, 2017):

Target: T1, Thymine DNA glycosylase (TDG), full-length wild-type human, N-terminal hexahistidine tag (human, UniProt Q13569)
T1 construct: Thymine DNA glycosylase (TDG), human, full-length wild type, from pET28c(+) plasmid (gift of Primo Schär); The purification describes no tag cleavage step; also called TDG wt; full length TDG; source: E. coli BL21-RIL (DE3), purified (HisTrap, HiTrap Heparin)
T1 sequence (Q13569 whole entry): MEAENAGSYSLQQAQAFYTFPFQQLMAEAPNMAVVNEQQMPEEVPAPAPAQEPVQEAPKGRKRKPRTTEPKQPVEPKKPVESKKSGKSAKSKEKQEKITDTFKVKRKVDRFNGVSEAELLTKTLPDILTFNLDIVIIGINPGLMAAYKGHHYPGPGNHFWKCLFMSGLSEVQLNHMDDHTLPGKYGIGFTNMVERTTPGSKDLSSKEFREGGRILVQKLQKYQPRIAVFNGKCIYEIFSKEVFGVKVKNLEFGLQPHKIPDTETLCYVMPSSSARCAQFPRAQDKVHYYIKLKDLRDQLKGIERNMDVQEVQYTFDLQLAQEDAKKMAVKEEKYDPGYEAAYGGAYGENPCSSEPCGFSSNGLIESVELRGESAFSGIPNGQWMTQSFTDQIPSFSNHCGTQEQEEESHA
Experiment: SEC; Superdex 200 10/300 GL; co-injection of NEIL1 E3Q and TDG (5nmoles of both in 0.5 ml), incubated 30 min on ice; SEC buffer 70 mM MOPS pH7.5, 5% glycerol, 1 mM EDTA, 1 mM DTT, 100 mM KCl; profile compared with the sum of separate injections
Conditions: both partners purified

B1: NEIL1 E3Q (human Nei-like 1, E3Q variant, C-terminal hexahistidine tag) (enzyme)
chain: not shown
notes: The purification describes no tag cleavage step. pET28 plasmid obtained from Prof Barbara Tudek and Prof Bertrand Castaing; source: E. coli BL21-RIL (DE3), purified (Ni-NTA, HiTrap Heparin)
Question: Does B1 bind?
Answer: binds
